US9126931B2 (priority 2009, dated 2015)

Test system: Human lymphoma cell line KARPAS-299
Experiment: cells
Conditions: KARPAS-299, 96 h, read-out: Inhibitory activity on Karpas-299 cell growth IC50

| SMILES | IC50 [nM] |
| --- | --- |
| CC1(C)c2cc(OC[C@H](O)CO)ccc2C(=O)c2c1[nH]c1c(C#N)c(C#N)ccc21 [Compound U8-3-2, 8-((R)-2,3-Dihydroxy-propoxy)-6,6-dimethyl-11-oxo-6,11-dihydro-5H-benzo[b]carbazole-3,4-dicarbonitrile] | 677 |
| CN(C)S(=O)(=O)N1CCN(Cc2ccc3c(c2)C(C)(C)c2[nH]c4cc(C#N)ccc4c2C3=O)CC1 [Compound B3-36, 4-(3-Cyano-6,6-dimethyl-11-oxo-6,11-dihydro-5H-benzo[b]carbazol-8-ylmethyl)-piperazine-1-sulfonic acid dimethylamide] | 39 |
| CC1(C)c2cc(C(=O)NCCNS(C)(=O)=O)ccc2C(=O)c2c1[nH]c1cc(C#N)ccc21 [Compound B3-25-3, 3-Cyano-6,6-dimethyl-11-oxo-6,11-dihydro-5H-benzo[b]carbazol-8-carboxylic acid (2-methanesulfonylamino-ethyl)-amide] | 730 |
| CC1(C)c2nc(OS(=O)(=O)C(F)(F)F)ccc2C(=O)c2c1[nH]c1cc(C#N)ccc21 [EZ9-1, Trifluoro-methanesulfonic acid 8-cyano-11,11-dimethyl-5-oxo-10,11-dihydro-5H-pyrido[2,3-b]carbazol-2-yl ester] | 16600 |
| CC(C)Oc1cc2c(cc1C1=CCN(C3COC3)CC1)C(=O)c1c([nH]c3cc(C#N)ccc13)C2(C)C [Compound E5-6, 8-Isopropoxy-6,6-dimethyl-9-(1-oxetan-3-yl-1,2,3,6-tetrahydro-pyridin-4-yl)-11-oxo-6,11-dihydro-5H-benzo[b]carbazole-3-carbonitrile] | 52.7 |
| CC1(C)c2cc(N3CCN(C4CC4)CC3)c(Br)cc2C(=O)c2c1[nH]c1cc(C#N)ccc21 [Compound F4-9, 9-Bromo-8-(4-cyclopropyl-piperazin-1-yl)-6,6-dimethyl-11-oxo-6,11-dihydro-5H-benzo[b]carbazole-3-carbonitrile] | 65 |
| CCN(CC)CCOc1ccc2c(c1)C(C)(C)c1[nH]c3cc(NC(=O)OCCOC)ccc3c1C2=O [GT5-7, [8-(2-Diethylamino-ethoxy)-6,6-dimethyl-11-oxo-6,11-dihydro-5H-benzo[b]carbazol-3-yl]-carbamic acid 2-methoxy-ethyl ester] | 17100 |
| CC1(C)c2cc(OCCC3CCN(C4COC4)CC3)ccc2C(=O)c2c1[nH]c1cc(C#N)ccc21 [Compound A8-21, 6,6-Dimethyl-8-[2-(1-oxetan-3-yl-piperidin-4-yl)-ethoxy]-11-oxo-6,11-dihydro-5H-benzo[b]carbazole-3-carbonitrile] | 105 |
| CC1(C)c2cc(O[C@@H]3CCOC3)ccc2C(=O)c2c1[nH]c1cc(Br)ccc21 [Compound T1-1, 3-Bromo-6,6-dimethyl-8-[(R)-(tetrahydro-furan-3-yl)oxy]-5,6-dihydro-benzo[b]carbazol-11-one] | 1870 |
| CCN(CC)CCOc1ccc2c(c1)C(C)(C)c1[nH]c3cc(NC(=O)Nc4cccc(C(F)(F)F)c4)ccc3c1C2=O [GT5-11, 1-[8-(2-Diethylamino-ethoxy)-6,6-dimethyl-11-oxo-6,11-dihydro-5H-benzo[b]carbazol-3-yl]-3-(3-trifluoromethyl-phenyl)-urea] | 1960 |
| C#Cc1cc2c(cc1N1CCN(C3CCC3)CC1)C(C)(C)c1[nH]c3cc(C#N)ccc3c1C2=O [Compound F5-43, 8-(4-Cyclobutyl-piperazin-1-yl)-9-ethynyl-6,6-dimethyl-11-oxo-6,11-dihydro-5H-benzo[b]carbazole-3-carbonitrile] | 8.6 |
| CC(C)Oc1cc2c(cc1OC1CCCN(C3CCC3)C1)C(C)(C)c1[nH]c3cc(C#N)ccc3c1C2=O (centres unmarked) [Compound L10-7, 8-(1-Cyclobutyl-piperidin-3-yloxy)-9-isopropoxy-6,6-dimethyl-11-oxo-6,11-dihydro-5H-benzo[b]carbazole-3-carbonitrile] | 37 |
| CC1(C)c2cc(N3CCOCC3)c(OCCO)cc2C(=O)c2c1[nH]c1cc(C#N)ccc21 [Compound K10-7, 9-(2-Hydroxy-ethoxy)-6,6-dimethyl-8-morpholin-4-yl-11-oxo-6,11-dihydro-5H-benzo[b]carbazole-3-carbonitrile] | 51.8 |
| CC1(C)c2cc(OC[C@H](O)CO)ccc2C(=O)c2c1[nH]c1cc(-c3cncs3)ccc21 [GT9-6, 8-((R)-2,3-Dihydroxy-propoxy)-6,6-dimethyl-3-thiazol-5-yl-5,6-dihydro-benzo[b]carbazol-11-one] | 2660 |
| COc1ccc(C(C)(C)C)cc1NC(=O)Oc1ccc2c3c(oc2c1)C(C)(C)c1cc(OC[C@H](O)CO)ccc1C3=O [GT13-32, (5-tert-Butyl-2-methoxy-phenyl)-carbamic acid 8-((R)-2,3-dihydroxy-propoxy)-6,6-dimethyl-11-oxo-6,11-dihydro-benzo[b]naphtho[2,3-d]furan-3-yl ester] | 2500 |
| CCOCCOC1CCN(c2cc3c(cc2CC)C(=O)c2c([nH]c4cc(C#N)ccc24)C3(C)C)CC1 [PR9-23, 8-[4-(2-Ethoxy-ethoxy)-piperidine-1-yl]-9-ethyl-6,6-dimethyl-11-oxo-6,11-dihydro-5H-benzo[b]carbazole-3-carbonitrile] | 20.5 |

| SMILES | IC50 [nM] |
| --- | --- |
| CN1CCN(S(=O)(=O)NCCOc2ccc3c(c2)C(C)(C)c2[nH]c4cc(C#N)ccc4c2C3=O)CC1 [Compound A8-19, 4-Methyl-piperazine-1-sulfonic acid[2-(3-cyano-6,6-dimethyl-11-oxo-6,11-dihydro-5H-benzo[b]carbazol-8-yloxy)-ethyl]-amide] | 72.6 |
| CC1(C)c2cc(N3CCN(C4CCC4)CC3)c(C3CC3)cc2C(=O)c2c1[nH]c1cc(C#N)ccc21 [Compound F5-46, 8-(4-Cyclobutyl-piperazin-1-yl)-9-cyclopropyl-6,6-dimethyl-11-oxo-6,11-dihydro-5H-benzo[b]carbazole-3-carbonitrile] | 28.9 |
| CCCc1cc2c(cc1N1CCN(C3CCC3)CC1)C(C)(C)c1[nH]c3cc(C#N)ccc3c1C2=O [Compound F6-18, 8-(4-Cyclobutyl-piperazin-1-yl)-6,6-dimethyl-11-oxo-9-propyl-6,11-dihydro-5H-benzo[b]carbazole-3-carbonitrile] | 23.1 |
| CC1(C)c2cc(OCCO)ccc2C(=O)c2c1[nH]c1cc(C#N)ccc21 [Compound A7-12, 8-(2-Hydroxyethoxy)-6,6-dimethyl-11-oxo-6,11-dihydro-5H-benzo[b]carbazole-3-carbonitrile] | 112 |
| CC1(C)c2ccc(C3=CCNCC3)cc2C(=O)c2c1[nH]c1cc(C#N)ccc21 [Compound J7-10-2, 6,6-Dimethyl-11-oxo-9-(1,2,3,6-tetrahydro-pyridin-4-yl)-6,11-dihydro-5H-benzo[b]carbazole-3-carbonitrile] | 30.3 |
| CCc1cc2c(cc1N1CCN(C3(C#N)CCCCC3)CC1)C(C)(C)c1[nH]c3cc(C#N)ccc3c1C2=O [Compound E9-9, 8-[4-(1-Cyano-cyclohexyl)-piperazin-1-yl]-9-ethyl-6,6-dimethyl-11-oxo-6,11-dihydro-5H-benzo[b]carbazole-3-carbonitrile] | 4 |
| CC1(C)c2cc(OCCNC(=O)C(F)(F)F)ccc2C(=O)c2c1[nH]c1cc(C#N)ccc21 [Compound A9-2, N-[2-(3-Cyano-6,6-dimethyl-11-oxo-6,11-dihydro-5H-benzo[b]carbazol-8-yloxy)-ethyl]-2,2,2-trifluoro-acetamide] | 137 |
| CCN1CCN(CCOc2ccc3c(c2)C(C)(C)c2[nH]c4cc(C#N)ccc4c2C3=O)CC1 [Compound A8-13, 8-[2-(4-Ethyl-piperazin-1-yl)-ethoxy]-6,6-dimethyl-11-oxo-6,11-dihydro-5H-benzo[b]carbazole-3-carbonitrile] | 22.6 |
| CC1(C)c2cc(OCC3CCN(C4CN(S(C)(=O)=O)C4)CC3)ccc2C(=O)c2c1[nH]c1cc(Br)ccc21 [Compound T14-9, 3-Bromo-8-[1-(1-methanesulfonyl-azetidin-3-yl)-piperidin-4-ylmethoxy]-6,6-dimethyl-5,6-dihydro-benzo[b]carbazol-11-one] | 1080 |
| CC(=O)OC[C@H]1OC(C)(C)O[C@@H]1COc1ccc2c(c1)C(C)(C)c1[nH]c3cc(Br)ccc3c1C2=O [Compound T22-1-2, Acetic acid (3R,4R)-5-(3-bromo-6,6-dimethyl-11-oxo-6,11-dihydro-5H-benzo[b]carbazol-8-yloxymethyl)-2,2-dimethyl[1,3]dioxolan-4-ylmethyl ester] | 1780 |
| CCN(CC)CCOc1ccc2c(c1)C(C)(C)c1[nH]c3cc(N(C)C(=O)Nc4ccc(OC)cc4)ccc3c1C2=O [GT5-20, 1-[8-(2-Diethylamino-ethoxy)-6,6-dimethyl-11-oxo-6,11-dihydro-5H-benzo[b]carbazol-3-yl]-3-(4-methoxy-phenyl)-1-methyl-urea] | 6080 |
| CCc1cc2c(cc1NCCN1CCOCC1)C(C)(C)c1[nH]c3cc(C#N)ccc3c1C2=O [PR9-20, 9-Ethyl-6,6-dimethyl-8-(2-morpholine-4-yl-ethylamino)-11-oxo-6,11-dihydro-5H-benzo[b]carbazole-3-carbonitrile] | 18.8 |
| CC1(COc2ccc3c(c2)C(C)(C)c2[nH]c4cc(C#N)ccc4c2C3=O)COC1 [Compound A7-10, 6,6-Dimethyl-8-(3-methyloxetan-3-ylmethoxy)-11-oxo-6,11-dihydro-5H-benzo[b]carbazole-3-carbonitrile] | 303 |
| CC1(C)c2cc(N3CCN(S(C)(=O)=O)CC3)c(Br)cc2C(=O)c2c1[nH]c1cc(C#N)ccc21 [Compound F3-3, 9-Bromo-8-(4-methanesulfonyl-piperazin-1-yl)-6,6-dimethyl-11-oxo-6,11-dihydro-5H-benzo[b]carbazole-3-carbonitrile] | 16.2 |
| CCN(CC)CC#Cc1cc2c(cc1N1CCN(C3COC3)CC1)C(C)(C)c1[nH]c3cc(C#N)ccc3c1C2=O [Compound F5-29, 9-(3-Diethylamino-prop-1-ynyl)-6,6-dimethyl-8-(4-oxetan-3-yl-piperazin-1-yl)-11-oxo-6,11-dihydro-5H-benzo[b]carbazole-3-carbonitrile] | 7.6 |
| CCN(CC)CCOc1ccc2c(c1)C(C)(C)c1[nH]c3cc(NC(=O)COc4ccccc4)ccc3c1C2=O [GT5-13, N-[8-(2-Diethylamino-ethoxy)-6,6-dimethyl-11-oxo-6,11-dihydro-5H-benzo[b]carbazol-3-yl]-2 phenoxy-acetamide] | 1330 |
